In all, about 310,000 compounds went through this assay and about 2,200 (0.71%) showed an effect of 50% or more. Effects have a minus sign here. Some of the results follow.
Each compound was assayed against human ether-à-go-go-related gene (hERG) potassium channel (human, UniProt Q12809) (assay: primary screen, population patch clamp on CHO cells stably expressing hERG).
Sequence of human ether-à-go-go-related gene (hERG) potassium channel (Q12809 whole entry, looked up): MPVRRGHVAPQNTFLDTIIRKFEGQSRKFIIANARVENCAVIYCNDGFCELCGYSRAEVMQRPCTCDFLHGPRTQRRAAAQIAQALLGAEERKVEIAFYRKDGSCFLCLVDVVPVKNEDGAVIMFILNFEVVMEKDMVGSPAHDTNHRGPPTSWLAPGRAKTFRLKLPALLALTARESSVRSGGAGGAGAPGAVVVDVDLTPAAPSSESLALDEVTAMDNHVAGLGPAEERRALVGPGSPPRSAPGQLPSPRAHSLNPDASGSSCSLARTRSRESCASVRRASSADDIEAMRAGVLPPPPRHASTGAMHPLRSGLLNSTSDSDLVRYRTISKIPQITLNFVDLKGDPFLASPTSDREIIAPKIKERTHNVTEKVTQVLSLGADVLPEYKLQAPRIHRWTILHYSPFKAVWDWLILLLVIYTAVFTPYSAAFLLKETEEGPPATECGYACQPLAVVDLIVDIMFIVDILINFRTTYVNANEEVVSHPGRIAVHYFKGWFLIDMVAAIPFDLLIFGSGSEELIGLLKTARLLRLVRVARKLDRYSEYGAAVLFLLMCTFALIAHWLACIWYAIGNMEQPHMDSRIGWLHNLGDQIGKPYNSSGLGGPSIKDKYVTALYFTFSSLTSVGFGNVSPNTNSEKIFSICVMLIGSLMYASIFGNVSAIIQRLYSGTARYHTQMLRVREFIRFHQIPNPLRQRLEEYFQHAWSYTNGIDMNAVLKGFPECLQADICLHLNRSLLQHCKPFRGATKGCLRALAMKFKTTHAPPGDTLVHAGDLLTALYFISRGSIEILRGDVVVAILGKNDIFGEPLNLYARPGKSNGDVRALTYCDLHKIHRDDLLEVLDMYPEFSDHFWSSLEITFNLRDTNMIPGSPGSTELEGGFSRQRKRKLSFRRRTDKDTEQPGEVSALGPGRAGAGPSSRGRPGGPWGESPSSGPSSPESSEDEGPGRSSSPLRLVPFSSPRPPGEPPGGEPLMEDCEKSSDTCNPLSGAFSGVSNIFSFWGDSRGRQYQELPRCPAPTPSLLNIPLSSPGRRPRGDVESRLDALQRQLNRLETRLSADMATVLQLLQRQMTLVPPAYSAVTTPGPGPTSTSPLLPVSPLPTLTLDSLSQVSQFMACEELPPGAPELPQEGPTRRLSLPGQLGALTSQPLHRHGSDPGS

Going from COc1cc(/C=C(\C#N)c2ccccn2)cc(OC)c1O to CNCc1ccc(OCc2ccccc2)c(OC)c1, the “hERG current change (%, negative = inhibition) at 1uM” value falls from 18.4% to 7.11%.

Going from CC(O)Cc1nsc(NC(=O)c2cccs2)n1 (centres unmarked) to CCOC(=O)Cc1csc(NC(=O)c2c(O)c3ccccc3n(CCC(C)C)c2=O)n1, the “hERG current change (%, negative = inhibition) at 1uM” value falls from 14.2% to 6.25%.

First: CCN(CC)c1ccc(NC(=O)c2nc3nc(C)cc(C(F)F)n3n2)cc1
Second: Cc1cccc(NC(=O)CSc2nc3ccccc3nc2N2CC(C)OC(C)C2)c1 (centres unmarked)
The “hERG current change (%, negative = inhibition) at 1uM” value of the first is lower: -12.2% for the first, -5% for the second.

Compared with C=CCNC(=O)C1CC(=O)N(c2ccc(OCC(=O)Nc3ccc(CC)cc3)cc2)C1 (centres unmarked), COc1ccc(CCN2CC(C(=O)N(C)CC(=O)Nc3cccc(F)c3)CC2=O)cc1OC (centres unmarked) is lower in “hERG current change (%, negative = inhibition) at 1uM” value: 15.7% for the first, 13.7% for the second.

Going from CC(NS(=O)(=O)c1ccc(F)cc1)C(=O)NCc1ccncc1 (centres unmarked) to COc1ccc(S(=O)(=O)NC(CC(=O)NCC2CCCO2)c2ccco2)cc1 (centres unmarked), the “hERG current change (%, negative = inhibition) at 1uM” value rises from -0.322% to 8.13%.

First: COc1ccc(NC(=O)c2cc(Br)ccc2Cl)c([N+](=O)[O-])c1
Second: Nc1nc(SCC(=O)Nc2ccc([N+](=O)[O-])cc2Br)n[nH]1
The “hERG current change (%, negative = inhibition) at 1uM” value of the first is lower: 5.86% for the first, 8.66% for the second.

Going from S=C(NCc1ccccc1)NNc1nc2ccccc2[nH]1 to O=C(Nc1ccccc1C(=O)OCC(=O)c1c[nH]c2ccccc12)c1ccco1, the “hERG current change (%, negative = inhibition) at 1uM” value falls from 16.2% to 6.61%.

First: CCC(C)[C@H](NC(=O)[C@@H]1Cc2c([nH]c3ccccc23)C2c3ccccc3C(=O)N21)C(=O)N1CCC[C@@H]1C(=O)O (some centres unmarked)
Second: CCc1ccccc1NC(=O)C1CCCN1S(=O)(=O)c1ccc(-c2ccc(=O)[nH]n2)s1 (centres unmarked)
The “hERG current change (%, negative = inhibition) at 1uM” value of the first is higher: 5.99% for the first, -0.779% for the second.

Compared with O=C(Cc1cc(=O)oc2cc(O)ccc12)NCC1CCC(C(=O)O)CC1 (centres unmarked), CCOC(=O)c1oc2c(CN3CCCCC3C)c(O)ccc2c(=O)c1-c1ccc(OC)c(OC)c1 (centres unmarked) is lower in “hERG current change (%, negative = inhibition) at 1uM” value: 11.6% for the first, -3.28% for the second.

Compared with CC(C)CNC(=S)NC1CC2CCC(C1)N2Cc1ccccc1 (centres unmarked), CC1CCCC(C(=O)OCc2ccccc2)N1.Cl (centres unmarked) is higher in “hERG current change (%, negative = inhibition) at 1uM” value: -10.1% for the first, 13% for the second.

First: Cc1cc(C(=O)COC(=O)Cn2cnc3c2c(=O)n(C)c(=O)n3C)c(C)n1C
Second: COCCCNc1nc2c(c(=O)n(C)c(=O)n2C)n1Cc1cccc(OC)c1
The “hERG current change (%, negative = inhibition) at 1uM” value of the first is lower: 6.15% for the first, 11.6% for the second.

Going from COC(=O)c1cc(-c2ccc3c(c2)OCO3)nc2ccccc12 to COc1ccc(-n2c(CNCCc3ccc(C)cc3)nc3ccccc3c2=O)cc1, the “hERG current change (%, negative = inhibition) at 1uM” value rises from 2.46% to 7.64%.

Compared with Cc1ccnc(NS(=O)(=O)c2cc(-c3cc(C)no3)ccc2C(C)C)c1, COc1ccc(NS(=O)(=O)c2cc(NC(=O)c3cccc(OCc4c(C)noc4C)c3)ccc2OC)cc1 is higher in “hERG current change (%, negative = inhibition) at 1uM” value: 5.18% for the first, 17.6% for the second.

First: CCCS(=O)(=O)N1CCCC(C(=O)c2ccccc2OC)C1 (centres unmarked)
Second: CCc1nnc(NC(=O)C2CCCN(C(=O)c3ccc(Cl)cc3)C2)s1 (centres unmarked)
The “hERG current change (%, negative = inhibition) at 1uM” value of the first is lower: 1.77% for the first, 27.3% for the second.

Compared with O=C(Cn1c(=O)oc2ccc(Cl)cc21)Nc1ccon1, Cc1cc(NC(=O)C2CC(c3ccc(Cl)cc3)=NO2)no1 (centres unmarked) is lower in “hERG current change (%, negative = inhibition) at 1uM” value: 10.3% for the first, -3.86% for the second.

First: CCCN1CCN(C(=O)CCNC(=O)Cn2cnc3ccccc3c2=O)CC1
Second: O=C(CCn1[nH]c(=O)c2ccccc2c1=O)NCCO
The “hERG current change (%, negative = inhibition) at 1uM” value of the first is higher: 9.86% for the first, 8.51% for the second.

Going from CCOCCCNC(=O)C1(O)c2ccccc2NC(=O)N1c1ccc(C)c(C)c1 (centres unmarked) to COc1cc(C2Nc3ccccc3C(=O)N2c2ccccc2)c(Br)cc1OCC(=O)O (centres unmarked), the “hERG current change (%, negative = inhibition) at 1uM” value falls from 14.2% to 6.46%.

Compared with COCCn1nnnc1C(c1ccccc1)N1CCN(C)CC1.Cl (centres unmarked), O=C(c1ccccc1)N1CCN(Cc2ccccc2Br)CC1 is higher in “hERG current change (%, negative = inhibition) at 1uM” value: 4.45% for the first, 10.4% for the second.

Going from COc1ccc(-n2nc3c(N4CCC(C(=O)NCc5ccco5)CC4)nnc(C)c3c2C)cc1 to Cc1ccc(-n2c(C)c(C)c3c(NCCN(C)C)ncnc32)cc1, the “hERG current change (%, negative = inhibition) at 1uM” value falls from 9.69% to 6.22%.

First: Cc1ccc(C(=O)C2=C(O)C(=O)N(Cc3cccnc3)C2c2cccc(Oc3ccccc3)c2)o1 (centres unmarked)
Second: CCN1C(=O)[C@H]2[C@@H](c3ccc(C)cc3)N3C(=O)N(c4cccc(Br)c4)C(=O)[C@@]3(Cc3ccccc3)[C@H]2C1=O
The “hERG current change (%, negative = inhibition) at 1uM” value of the first is higher: 12.6% for the first, 12% for the second.

Compared with Cc1cc(=O)[nH]c2c1c(-c1ccccc1)nn2C, Cc1ccccc1N1C(=O)NC(=O)/C(=C\c2cnn(-c3ccccc3)c2)C1=O is higher in “hERG current change (%, negative = inhibition) at 1uM” value: 11.2% for the first, 12.7% for the second.

Going from O=c1[nH]c2cc3c(cc2cc1C(c1nnnn1C1CCCC1)N1CCSCC1)OCCO3 (centres unmarked) to Cn1c2ccccc2c2c(C(=O)NCCCN3CCCC3=O)cn(C3CCCCC3)c(=O)c21, the “hERG current change (%, negative = inhibition) at 1uM” value rises from 8.11% to 10.9%.

Compared with CC(C)=CCc1c(O)cc2oc3c(CC=C(C)C)c(O)c(O)c(CC=C(C)C)c3c(=O)c2c1O, CCOC(=O)c1c(C)[nH]c(C(=O)OCC(=O)N2CCN(S(=O)(=O)c3ccc(C)cc3C)CC2)c1C is lower in “hERG current change (%, negative = inhibition) at 1uM” value: 10.5% for the first, 6.79% for the second.

First: CSc1ccc(S(=O)(=O)N2CCN(Cc3ccc4c(c3)OCO4)CC2)cc1
Second: Cc1ccc(S(=O)(=O)N2CCN(CC(=O)N/N=C/C=C/c3ccccc3)CC2)cc1
The “hERG current change (%, negative = inhibition) at 1uM” value of the first is higher: 4.77% for the first, -23.9% for the second.

First: CC(C)(C)CC(=O)Nc1nnc(SCC(=O)Nc2ccccc2F)s1
Second: Cc1cc(NC(=O)CSc2nnc(Nc3ccccc3)s2)no1
The “hERG current change (%, negative = inhibition) at 1uM” value of the first is higher: 15.9% for the first, 2.15% for the second.

First: Cc1cccc(NC(=O)CC(=O)Nc2cccc(C)c2)c1
Second: Cc1cc(C)cc(OCC(=O)NNC(=O)CN2C(=O)c3ccccc3C2=O)c1
The “hERG current change (%, negative = inhibition) at 1uM” value of the first is higher: 13.6% for the first, 9.33% for the second.

First: COc1cc(CN2CCNC(=O)C2CC(=O)N(C)CCCN2CCOCC2)cc(OC)c1 (centres unmarked)
Second: Cc1nc(CCNC(=O)CC2C(=O)NCCN2Cc2ccc(F)cc2)sc1C (centres unmarked)
The “hERG current change (%, negative = inhibition) at 1uM” value of the first is lower: 4.44% for the first, 9.13% for the second.

Going from CC(c1nnc(SCC(=O)Nc2cccnc2Cl)n1Cc1ccccc1)N(C)C (centres unmarked) to C[C@H](CO)NC(=O)[C@H](C)[C@@H]1C[C@@]1(C)[C@@H](NC(=O)OCc1ccccc1)c1ccccc1, the “hERG current change (%, negative = inhibition) at 1uM” value falls from 10.6% to -11.2%.

Compared with CN(CC(=O)Nc1ccccc1-c1ccccc1)C1CCCCC1.[O-][Cl+3]([O-])([O-])O, NS(=O)(=O)c1ccc(NC(=O)CCC2CCCCC2)cc1 is lower in “hERG current change (%, negative = inhibition) at 1uM” value: 13.3% for the first, 11.7% for the second.

First: COc1ccc(C(CCN(Cc2ccc(OC)c(OC)c2)C(C)=O)C(C)C)cc1 (centres unmarked)
Second: CCOc1ccc(-c2ncncc2-c2ccc(OC)c(OC)c2)c(O)c1
The “hERG current change (%, negative = inhibition) at 1uM” value of the first is lower: -3.75% for the first, 3.88% for the second.

Going from CSCCC(NS(=O)(=O)/C=C/c1ccccc1)C(=O)O (centres unmarked) to CC(=O)OCC(=O)NCC(=O)c1c[nH]c2ccccc12, the “hERG current change (%, negative = inhibition) at 1uM” value rises from 9.33% to 14.6%.

First: CN(C)/C=C/C(=O)c1cccc(Cl)c1
Second: COc1cccc(C(=O)N2N=C(c3ccccc3)CC2(O)C(F)(F)F)c1 (centres unmarked)
The “hERG current change (%, negative = inhibition) at 1uM” value of the first is lower: 7.78% for the first, 10.6% for the second.

Compared with CCOC(=O)c1sc2nc(Cc3ccc(Cl)cc3)[nH]c(=S)c2c1C, CCn1cc(C(=O)O)c(=O)c2cnc(N3CCN(C(=S)NC(=O)c4ccc(Cl)cc4)CC3)nc21 is lower in “hERG current change (%, negative = inhibition) at 1uM” value: 11.7% for the first, 8.69% for the second.

Going from O=C(NCN1C(=O)C2C3C=CC(C3)C2C1=O)Nc1ccccc1O (centres unmarked) to O=C1C2C3C=CC(C3)C2C(=O)N1CCc1ccccc1 (centres unmarked), the “hERG current change (%, negative = inhibition) at 1uM” value rises from 9.21% to 9.23%.

Going from CCOC(=O)C(C#N)C(Cc1ccccc1)c1ccco1 (centres unmarked) to S=c1[nH]nc(-c2ccco2)n1/N=C/c1ccccc1Cl, the “hERG current change (%, negative = inhibition) at 1uM” value rises from 0.241% to 13.4%.

Going from O=C([O-])c1ccc(-n2nc(C(F)(F)F)c3c2CCCC3)cc1.[K+] to O=c1c(Cc2ccccc2)c(O)c2cccc3c4c(n1c23)CCCC4, the “hERG current change (%, negative = inhibition) at 1uM” value falls from 12.2% to 6.44%.

First: Cn1ccnc1SCC(=O)Nc1ccc(Br)cc1C(F)(F)F
Second: O=C(O)c1ccc(Cn2cc(C(F)(F)F)ccc2=O)cc1
The “hERG current change (%, negative = inhibition) at 1uM” value of the first is lower: -0.515% for the first, 19.6% for the second.

First: [C-]#[N+][C@H](O[C@@H]1O[C@H](CO)[C@@H](O)[C@H](O)[C@H]1O)c1ccccc1
Second: COC(=O)C1CN(C(=O)C(C)Oc2ccc(F)cc2)c2ccccc2O1 (centres unmarked)
The “hERG current change (%, negative = inhibition) at 1uM” value of the first is lower: -2.86% for the first, 14.1% for the second.

Compared with O=S(=O)(Cc1ccccc1)/C1=C(\N2CCOCC2)CCCCCC1, CCCN1CCCc2cc(CN)ccc21.O=C(O)C(=O)O is higher in “hERG current change (%, negative = inhibition) at 1uM” value: -3.85% for the first, 8.14% for the second.

Going from C=CCNC(=S)NNC(=O)c1csc(C)c1C to Cc1cccc(C)c1NC(=O)N1C(C(=O)O)CSC1C(=O)O (centres unmarked), the “hERG current change (%, negative = inhibition) at 1uM” value falls from 16% to 15.3%.

Going from CN(C(=O)CSc1nnc2ccccn12)C1CCS(=O)(=O)C1 (centres unmarked) to CCC(C)N1CCN(C(=O)C2CCN(S(=O)(=O)c3c(C)noc3/C=C/c3ccco3)CC2)CC1 (centres unmarked), the “hERG current change (%, negative = inhibition) at 1uM” value falls from 6.25% to 5.94%.

Compared with CCNS(=O)(=O)c1ccc(OCCNS(C)(=O)=O)cc1, C/C(CC(=O)Nc1cccnc1)=N\NC(=O)C(=O)NC(C)C is higher in “hERG current change (%, negative = inhibition) at 1uM” value: 7.11% for the first, 15.6% for the second.

First: C=C[C@@]12CN(C)[C@H]3[C@H]1[C@@]1(C(=O)Nc4ccccc41)C1CC2[C@@H]3CO1
Second: O=C(C1CC(=O)N(c2ccc(F)c(Cl)c2)C1)N1CCC2(CC1)OCCO2 (centres unmarked)
The “hERG current change (%, negative = inhibition) at 1uM” value of the first is higher: 13.4% for the first, 7.02% for the second.
